This note sets out measurements from article PMC6499641 (Molecular cell, 2019).

The assay concerns the target Human GST-NDUFS1 (recombinant NDUFS1) (human, UniProt P28331). Description: MST.

B1: GST-MDM2^WT (recombinant GST-tagged MDM2 full length) (natural protein, murine)
chain: MCNTNMSVSTEGAASTSQIPASEQETLVRPKPLLLKLLKSVGAQNDTYTMKEIIFYIGQYIMTKRLYDEKQQHIVYCSNDLLGDVFGVPSFSVKEHRKIYAMIYRNLVAVSQQDSGTSLSESRRQPEGGSDLKDPLQAPPEEKPSSSDLISRLSTSSRRRSISETEENTDELPGERHRKRRRSLSFDPSLGLCELREMCSGGSSSSSSSSSESTETPSHQDLDDGVSEHSGDCLDQDSVSDQFSVEFEVESLDSEDYSLSDEGHELSDEDDEVYRVTVYQTGESDTDSFEGDPEISLADYWKCTSCNEMNPPLPSHCKRCWTLRENWLPDDKGKDKVEISEKAKLENS[left out - about 150 residues]
modifications: NHS ester-modified and fluorescently labeled with Alexa Fluor 647 (in the MST only)
For orientation: Kd means the equilibrium constant for the complex coming apart. In the case of B1, the Kd came to 1100 ± 600 nM.
